Over roughly 33,000 sequences, “E-score (-0.5 to 0.5)” has its median near -0.041; the highest 2% begin near 0.37. This is one part of the list.
Each sequence was assayed against T1, Ecm22 (UniProt Q05958) (assay: PBM E-score (8-mer binding enrichment) (E-score (-0.5 to 0.5)); higher = stronger / more preferred TF binding; most listed sequences are background and not binding sites). Conditions: protein concentration: 200 nM; construct: GST-full length.
T1 sequence: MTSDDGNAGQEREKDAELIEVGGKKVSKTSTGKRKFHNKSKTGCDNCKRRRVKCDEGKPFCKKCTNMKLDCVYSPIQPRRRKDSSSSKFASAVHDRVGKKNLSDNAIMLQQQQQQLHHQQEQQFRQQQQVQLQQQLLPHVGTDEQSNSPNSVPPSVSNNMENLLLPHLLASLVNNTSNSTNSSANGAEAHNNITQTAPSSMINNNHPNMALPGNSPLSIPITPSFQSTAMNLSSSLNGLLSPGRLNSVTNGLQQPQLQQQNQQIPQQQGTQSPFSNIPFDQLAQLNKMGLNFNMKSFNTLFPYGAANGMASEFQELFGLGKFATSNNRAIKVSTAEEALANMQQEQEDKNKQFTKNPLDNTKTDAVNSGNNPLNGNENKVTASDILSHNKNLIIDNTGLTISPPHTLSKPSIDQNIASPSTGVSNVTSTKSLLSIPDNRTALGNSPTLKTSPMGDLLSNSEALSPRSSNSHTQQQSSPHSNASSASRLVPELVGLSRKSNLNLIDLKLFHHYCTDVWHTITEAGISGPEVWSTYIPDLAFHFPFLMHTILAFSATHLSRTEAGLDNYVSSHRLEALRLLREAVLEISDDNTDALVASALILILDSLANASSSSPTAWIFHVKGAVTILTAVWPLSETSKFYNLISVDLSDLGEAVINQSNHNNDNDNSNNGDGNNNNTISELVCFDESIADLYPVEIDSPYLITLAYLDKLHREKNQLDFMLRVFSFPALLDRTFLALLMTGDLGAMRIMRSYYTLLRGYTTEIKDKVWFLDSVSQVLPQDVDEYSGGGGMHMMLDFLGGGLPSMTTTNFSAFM
Summary of the method: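 GST-tagged yeast TFs (full-length or DNA-binding domain) were made by PURExpress in vitro transcription/translation and applied at about 100-200 nM to universal all-10-mer Agilent arrays. The arrays were made double-stranded by primer extension, on fresh or once-stripped slides. Bound protein was detected with fluorescent anti-GST, and scans were normalised with masliner. Each ungapped eight-base word, pooled with its reverse complement, received an E-score (modified Wilcoxon-Mann-Whitney statistic) from the Universal PBM Analysis Suite.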

In order of rising “PBM E-score” value:
1. GGGGCCTA  -0.363
2. GTCTTCCA  -0.358
3. CCATGGGC  -0.347
4. CCCAGGAC  -0.318
5. GGAGAGGA  -0.31
6. CCACGTCA  -0.297
7. AACTGGAG  -0.292
8. CCTTGACC  -0.282
9. CTTACTCA  -0.278
10. TAGTCAGA  -0.276
11. AATGGAGG  -0.264
12. AGGCTGGG  -0.263
13. GGCTCCAA  -0.255
14. GTAGGTAA  -0.25
15. GACTTCCA  -0.246
16. GAGTCAAA  -0.243
17. AAGGATCT  -0.231
18. AAAGACTC  -0.228
19. AAAAAGTT  -0.226
20. AAAGGAGA  -0.219
21. GCCGACCC  -0.219
22. AGGGTCAC  -0.217
23. AGTAGAGC  -0.2
24. CTTCTGTC  -0.199
25. CACTTGAC  -0.199
26. ACCTCTAA  -0.197
27. AGGTCTGC  -0.195
28. GGACGTAA  -0.191
29. ACCCAGCC  -0.191
30. CATCTCAA  -0.184
31. AAACCCCA  -0.183
32. AGTCAGGC  -0.182
33. AGGTTGAG  -0.181
34. GGTGTGAC  -0.177
35. GCTATGCA  -0.168
36. ATGTCCGG  -0.164
37. GACTTATC  -0.164
38. ATCGGAGG  -0.158
39. ACCCCCGA  -0.157
40. CTGTGGTC  -0.154
41. TGGATCAA  -0.152
42. CCTCCGTC  -0.147
43. AACCTCTA  -0.146
44. ACGCCGTG  -0.146
45. ACAGGAGC  -0.144
46. ACCCATGA  -0.142
47. ACAACTAC  -0.138
48. GGCTAACC  -0.137
49. ATAGACTG  -0.136
50. CCGTGGGA  -0.135
51. CCTACCTA  -0.133
52. AAGAGCCG  -0.132
53. ATCTACTC  -0.13
54. AAGGACAG  -0.127
55. AATGTAAC  -0.126
56. ACCGGCTG  -0.125
57. AGAGTGGC  -0.125
58. TGACCGCA  -0.125
59. CTCGAAGA  -0.124
60. ACAGGAGG  -0.122
61. GATTCCAA  -0.114
62. GTAAGGAC  -0.113
63. AGCAGGAA  -0.113
64. CTGTGATA  -0.112
65. CATCTGAA  -0.108
66. GCGTGCCA  -0.107
67. AAGAGCTT  -0.107
68. CCAGCAGG  -0.104
69. CCGGTACC  -0.103
70. ATAGACCC  -0.102
71. GCAAGAGA  -0.102
72. GCTTGACC  -0.101
73. CTGCGCCA  -0.1
74. AGCTCAAT  -0.1
75. CTATCAAG  -0.1
76. GTCTTCAC  -0.097
77. CTAGAGCA  -0.097
78. GAGGGTCC  -0.0951
79. CTCTGACC  -0.093
80. CTGAACTA  -0.092
81. CATGATCC  -0.0897
82. CAGAGCCC  -0.0894
83. ACTGTAAT  -0.0882
84. GAAGTGTA  -0.0859
85. ATAATGAC  -0.0848
86. ACCGGCTA  -0.0846
87. CCGGAAAG  -0.0844
88. AAGGATAA  -0.0836
89. TGAATTCA  -0.0829
90. CCATGCCG  -0.0818
91. CCAAGGTA  -0.0792
92. GCACGTAA  -0.0691
93. CGCTATAG  -0.0678
94. AGCTAAGA  -0.067
95. ATTCTCAC  -0.0663
96. GTCTGAGA  -0.0659
97. CACGGAGC  -0.0645
98. AATTGCAG  -0.0638
99. GTAGTAAA  -0.0594
100. CCAAATCA  -0.0571
101. TACTCACA  -0.0537
102. AACTCATG  -0.0529
103. TAAATGTA  -0.0523
104. TTGCCCAA  -0.0518
105. AGTCCGTG  -0.0515
106. GATCGTGA  -0.0461
107. CGGTTGAA  -0.0459
108. GAGGGTTA  -0.0446
109. AGATATGA  -0.0436
110. AGATGTTA  -0.043
111. AGAAACGC  -0.0375
112. GGCAGGTA  -0.0373
113. ATATTAGA  -0.0362
114. CTATCAGA  -0.0322
115. GGGCACGA  -0.0319
116. ACAGGACG  -0.0316
117. AGTGGAGG  -0.0301
118. TCGAACCA  -0.029
119. ACTGTTGC  -0.0275
120. GTTATCAA  -0.026
121. ACATAATG  -0.0251
122. ATCCGCAG  -0.0244
123. AAAGCCGA  -0.0239
124. AGCTACTA  -0.0215
125. CGGTCCAC  -0.0214
126. AAACGCCT  -0.0201
127. GCGCCGAA  -0.017
128. TGTAAACA  -0.0145
129. CGCCCATA  -0.00763
130. CAACACTC  -0.00527
131. CGTCTGCA  -0.00416
132. ACAGCTAC  -0.00322
133. ATAGAAAC  -0.00054
134. AGCAAATC  0.00098
135. ATAATTAC  0.00166
136. AGAGACGC  0.0019
137. AATACATG  0.00214
138. GGACATCA  0.00287
139. GAAATGTA  0.00436
140. CTGTTTTC  0.00601
141. AAATCTCA  0.0114
142. GCTCGTCA  0.0115
143. ACGTCATC  0.0129
144. TAACCACA  0.015
145. ATCTAGAC  0.016
146. GCATACCA  0.0161
147. ACGCTATC  0.0211
148. AAACTAAA  0.0234
149. GATGAAGA  0.0264
150. ATAACGCA  0.0311
151. TGTATTAA  0.0318
152. CCAATAAC  0.0328
153. GGCGGTTA  0.033
154. ATACTATC  0.0363
155. CGGGAAAG  0.0376
156. ACATGTAC  0.0377
157. CGATATTC  0.0427
158. TAGTTAAA  0.0471
159. GGCGAGAA  0.0538
160. CAAGCTTC  0.0567
161. CCAATCCG  0.0601
162. ACATGCGG  0.0685
163. AGTCTGTA  0.0767
164. CCCCGCAC  0.0767
165. GAATCATC  0.0775
166. ACGGAACA  0.0777
167. CGTCGTCA  0.0778
168. CAGTCGAC  0.0794
169. TATGACCA  0.0827
170. CAGAATAC  0.0856
171. CGCATTTC  0.0907
172. GGGAACTA  0.0948
173. AGTAGACG  0.0957
174. CTAATGTA  0.0966
175. AGCATTAA  0.0992
176. ATAGAGCC  0.102
177. GTGCGGTA  0.103
178. GGCGGTCA  0.111
179. GTGTTAAA  0.115
180. CTGCGAAC  0.116
181. CGTGTAAG  0.121
182. GCGACGGA  0.124
183. AACGTATC  0.127
184. ACCGATTC  0.127
185. ACGGATGC  0.128
186. GAGCCCGC  0.132
187. GAAGAAAC  0.132
188. ACGGTCAT  0.133
189. CATCGCTA  0.136
190. GTAACGGA  0.15
191. GTTAGGTA  0.156
192. GTCGAGAC  0.156
193. TGTCCGAA  0.165
194. CACATAAA  0.169
195. ATCGCATC  0.172
196. AATACTAC  0.173
197. AACTTCGC  0.175
198. CGAAACTC  0.175
199. CATTCTCG  0.186
200. CGCTCAGC  0.189
201. GTACAGGA  0.192
202. ATTGATAC  0.204
203. ACGGCACG  0.222
204. ACGCGCGC  0.224
205. GGAAGCGA  0.227
206. GCCGTGTA  0.229
207. CGAGTGAA  0.245
208. CGAGCGAA  0.26
209. AGATATAC  0.262
210. ATCCGAAT  0.265
211. GTTTAAAC  0.285
212. ACGATAAT  0.309
213. ACGACCAG  0.319
214. CAGATACG  0.346
215. CGTATGTA  0.351
216. CGTCGTAG  0.406
217. ATATCGTA  0.413
218. CCGGAACG  0.445
219. GCTCGTAC  0.486
